According to PubChem BioAssay AID1794842 (National Center for Advancing Translational Sciences (NCATS), 2023):
The whole screen tested about 2,800 compounds, of which fewer than 10 were called active. Calls follow the shape of the dose curve; as a rule, active = well fitted curve in the direction sought with a large enough effect; inconclusive = small, poorly fitted or top-dose-only effect, or another doubt; inactive = no such curve, though single readings can be large or run the other way. The list shows a part of the results.

Target: Metallo-beta-lactamase type 2 (Klebsiella pneumoniae) (UniProt C7C422)
UniProt C7C422, sequence (C7C422 whole entry, looked up): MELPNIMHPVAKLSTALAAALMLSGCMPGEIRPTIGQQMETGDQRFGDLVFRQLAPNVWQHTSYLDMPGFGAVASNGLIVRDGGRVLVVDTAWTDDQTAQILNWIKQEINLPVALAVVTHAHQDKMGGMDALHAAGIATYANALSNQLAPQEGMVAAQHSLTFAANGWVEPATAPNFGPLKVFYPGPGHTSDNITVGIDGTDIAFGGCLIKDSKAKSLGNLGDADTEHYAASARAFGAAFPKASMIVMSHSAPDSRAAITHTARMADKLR
Test: qHTS to identify inhibitors of the New Delhi Metallo-beta-lactamase (NDM): Meropenem screen against the machine-based learning selections. Also: % of control where 0% means no effect.
Conditions: Purified NDM-1, meropenem hydrolysis, absorbance 300 nm; at 57.5 µM (top of the series) unless noted
Description: Assay Submitter (PI): James Inglese Ph.D., Patricia Dranchak Ph.D., Mahesh Aitha Ph.D. Assay Development and Screening Technology Laboratory (ADST) National Center for Advancing Translational Sciences (NCATS), Rockville, MD National Institute of Health (NIH), Bethesda, Maryland The metallo-beta-lactamases (MBL) are a main antibiotic resistance mechanism evolved by bacteria. There is an urgent clinical need for MBL inhibitors to mitigate this growing threat. To support a machine-based learning study, qHTS has been used to experimentally test inhibitors identified by prediction tools.
PROTOCOL TABLE (as described by Inglese et al., 2007) SEQUENCE No. (e.g., 1, 2, 3, etc.); […] (e.g., enzyme, Incubation, Reagent, etc.); VALUE; DESCRIPTION Primary Screen 1; NDM-1; 4 uL of 3 nM enzyme [2 nM final] in 50 mM HEPES (pH 7.0), 1 uM […], 0.01% Tween20; Use BioRaptr to dispense into two sets of Aurora black, clear bottom high base 1536-well plates 2; Compounds; 23 nL; Use Pin Tool (Wako) to transfer DMSO control and library compounds in DMSO 3; Incubate; >30 min 4a; Reagent; 2 uL of 50 uM nitrocefin [16.7 uM final] to one set of assay plates 4b; Reagent; 2 uL of 150 uM meropenem [50 uM final] to second set of assay plates 5a; Incubate; 15 min 5b; Incubate; 30 min 6a; Detector; Absorbance at 485 nm (bandwidth = 5 nm, 25 flashes/well) on Tecan Infinity 6b; Detector; Absorbance at 300 nm (bandwidth = 5 nm, 25 flashes/well) on Tecan Infinity NOTES (numbers refer to sequence above) 1; Column 1 of each plate received assay buffer without enzyme and columns 2-48 received enzyme for a final assay concentration of 2 nM. 2; Control plate contained DMSO in columns 1, 2, 3, and 4. 3; Compound interaction with enzyme. 4; Nitrocefin and meropenem substrates were prepared in the same assay buffer as step 1 for a final assay concentration of 16.7 uM and 50 uM, respectively, and added to all wells across respective sets of assay plates. 5; Default reader settings were applied for absorbance read at 485 nm (nitrocefin) or 300 nm (meropenem), bandwidth = 5 nm, 25 flashes/well. References: Inglese J, Shamu CE, Guy RK. 2007. Reporting data from high-throughput screening of small-molecule libraries. Nat Chem Biol. doi:10.1038/nchembio0807-438 Yasgar A, Shinn P, Jadhav A, Auld D, Michael S, Zheng W, Austin CP, Inglese J, Simeonov A. 2008. Compound Management for Quantitative High-Throughput Screening. J Lab Autom 13:79 - 89. doi:10.1016/j.jala.2007.12.004

Structure (SMILES) | activity change, negative = inhibition
C#C[C@H]1CN2CC[C@H]1C[C@@H]2COC(=O)Nc1cc(OC)cc(OC)c1 | inactive: 8.76%
CCN(CC)C[C@H]1CN2CC[C@H]1C[C@@H]2CNC(=O)Nc1cccc(SC)c1 | inactive: 0.946%
Cn1nc(-c2ccccc2)cc1[C@H]1CN2CC[C@H]1C[C@@H]2CNC(=O)N1CCOCC1 | inactive: 2.81%
Cc1ncc2c(n1)C[C@@H]1CC[C@H]2N1C(=O)c1sccc1C | inactive: 3.42% [at 38.4 µM]
Cc1nc(-c2ccccc2)cc([C@H]2CN3CC[C@H]2C[C@@H]3CNC(=O)C2CCC2)n1 | inactive: 0.822%
O=C(C1CCCCC1)N1C[C@@H]2C[C@H](C1)c1ccc(-c3cccc(C(F)(F)F)c3)c(=O)n1C2 | inactive: 0.734% [at 38.4 µM]
COc1ccc(-c2cc([C@H]3CN4CC[C@H]3C[C@@H]4CNS(=O)(=O)c3ccc(C)cc3)n(C)n2)cc1OC | inactive: -1.62% [at 38.4 µM]
Cc1cccc(OCC(=O)N2[C@H]3CC[C@@H]2c2cnc(-c4ccccc4)nc2C3)c1 | inactive: -2.98% [at 38.4 µM]
Cc1nc(-c2ccccc2)cc([C@H]2CN3CC[C@H]2C[C@@H]3CNC(=O)c2cccs2)n1 | inactive: -1.41%
O=C(c1ccc(F)cc1)N1C[C@@H]2C[C@H](C1)c1c(-c3cc4ccccc4s3)ccc(=O)n1C2 | inactive: 2.24% [at 38.4 µM]
CC(=O)NCCNC(=O)[C@H]1CN2CCC1C[C@@H]2Cn1cc(-c2ccc(C(C)(C)C)cc2)nn1 (some centres undefined) | inactive: 1.52% [at 38.4 µM]
C=C[C@H]1CN2CC[C@H]1C[C@@H]2CNC(=O)c1cc(OC)c(OC)c(OC)c1 | inactive: -0.0689%
CC(C)NC(=O)NC[C@H]1C[C@@H]2CCN1C[C@@H]2c1cc(C2CCCCC2)nn1C | inactive: -0.638%
Cn1nc(-c2cccs2)cc1[C@H]1CN2CC[C@H]1C[C@@H]2CNC(=O)Nc1ccccc1 | inactive: -1.44%
CCCS(=O)(=O)NC[C@H]1C[C@@H]2CCN1C[C@@H]2c1cc(-c2cccs2)nn1C | inactive: -2.97%
CN(Cc1ccccc1)C[C@H]1CN2CC[C@H]1C[C@@H]2CNC(=O)Nc1cccc(C#N)c1 | inactive: -3.64%
O=C(O)c1cn(Cc2ccccc2F)nn1 | inactive: 54.3% [at 38.4 µM]
CC(C)N1C[C@@H]2OCC(=O)N(CC3CC3)[C@@H]2C1 | inactive: 2% [at 76.7 µM]
COc1ccccc1N1CCN(C(=O)[C@H]2CN3CCC2C[C@@H]3Cn2cc(C(C)(C)O)nn2)CC1 (some centres undefined) | inactive: -4.12% [at 38.4 µM]
